Laboratory results taken from PMC4336329 (PLoS ONE, 2015).
The whole screen tested about 310,000 compounds, of which about 14,000 (4.5%) showed an effect of 50% or more. Effects have a minus sign here. Some of the results follow.

biological target: human ether-à-go-go-related gene (hERG) potassium channel (human, UniProt Q12809); experiment: primary screen, population patch clamp on CHO cells stably expressing hERG
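Further: peak tail current of the secondary pulse compared with the same well before compound.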

Sequence of human ether-à-go-go-related gene (hERG) potassium channel (Q12809 whole entry, looked up): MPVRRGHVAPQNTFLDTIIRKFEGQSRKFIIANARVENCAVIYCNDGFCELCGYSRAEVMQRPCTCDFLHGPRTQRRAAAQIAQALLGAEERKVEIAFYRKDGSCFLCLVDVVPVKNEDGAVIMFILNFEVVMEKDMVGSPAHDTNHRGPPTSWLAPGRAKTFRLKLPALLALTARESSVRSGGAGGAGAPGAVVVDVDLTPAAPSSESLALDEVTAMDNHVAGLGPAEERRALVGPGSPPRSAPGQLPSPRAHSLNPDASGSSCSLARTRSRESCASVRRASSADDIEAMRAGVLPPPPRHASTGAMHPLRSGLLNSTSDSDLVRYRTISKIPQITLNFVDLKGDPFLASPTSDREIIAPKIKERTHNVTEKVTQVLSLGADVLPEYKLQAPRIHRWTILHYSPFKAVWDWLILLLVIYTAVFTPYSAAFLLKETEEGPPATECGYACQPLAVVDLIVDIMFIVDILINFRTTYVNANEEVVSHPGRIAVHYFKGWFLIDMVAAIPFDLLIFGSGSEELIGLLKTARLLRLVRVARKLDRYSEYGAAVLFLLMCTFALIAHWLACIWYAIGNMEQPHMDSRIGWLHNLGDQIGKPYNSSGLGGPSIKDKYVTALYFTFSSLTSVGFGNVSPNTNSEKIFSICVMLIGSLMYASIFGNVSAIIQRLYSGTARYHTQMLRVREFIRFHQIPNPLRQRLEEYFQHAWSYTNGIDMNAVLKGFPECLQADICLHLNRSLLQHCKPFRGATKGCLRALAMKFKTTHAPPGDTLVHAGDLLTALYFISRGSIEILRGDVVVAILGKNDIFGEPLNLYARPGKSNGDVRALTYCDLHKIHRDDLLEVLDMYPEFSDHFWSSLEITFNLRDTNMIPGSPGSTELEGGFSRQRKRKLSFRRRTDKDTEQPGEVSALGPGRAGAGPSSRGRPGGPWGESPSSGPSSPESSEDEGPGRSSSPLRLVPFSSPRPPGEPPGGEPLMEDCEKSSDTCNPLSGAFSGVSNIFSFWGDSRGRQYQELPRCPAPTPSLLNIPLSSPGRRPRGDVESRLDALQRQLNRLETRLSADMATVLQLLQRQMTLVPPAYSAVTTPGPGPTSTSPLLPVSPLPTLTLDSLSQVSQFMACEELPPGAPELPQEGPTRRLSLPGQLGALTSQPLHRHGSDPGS

First: N#Cc1cnc(Oc2ccc(Cl)cc2)nc1N
Second: Nc1ccc2nc(-c3ccccn3)[nH]c2c1
The “hERG current change (%, negative = inhibition) at 10uM” value of the first is higher: 10.9% for the first, 9.21% for the second.

First: O=C(NCc1ccccc1F)C(=O)NCC1OCCCN1S(=O)(=O)c1cccs1 (centres unmarked)
Second: O=C(NCCNC(=O)c1ccco1)c1cccc(F)c1
The “hERG current change (%, negative = inhibition) at 10uM” value of the first is higher: 9.19% for the first, 9.02% for the second.

Going from `N/C(CSc1ccccn1)=N\OCc1c(Cl)cccc1Cl` to `O=C(Cc1cccs1)N/N=C/c1ccccn1`, the “hERG current change (%, negative = inhibition) at 10uM” value falls from -5.24% to -7.62%.

First: O=S(=O)(NCc1nnc2ccccn12)c1ccc(Cl)cc1
Second: Cc1cc(C)nc(SC(C)CNS(=O)(=O)c2ccccc2)n1 (centres unmarked)
The “hERG current change (%, negative = inhibition) at 10uM” value of the first is higher: 5.97% for the first, 0.485% for the second.

First: CCCCN(CC)C(=O)Cn1ncc2c3ccccc3n(CCC)c2c1=O
Second: CCCCn1c(N)c(N(Cc2ccccc2OC)C(=O)COc2ccccc2OC)c(=O)[nH]c1=O
The “hERG current change (%, negative = inhibition) at 10uM” value of the first is lower: -46.4% for the first, 3.21% for the second.

First: CNC(=S)N/N=C/c1c2ccccc2c(Cl)c2ccccc12
Second: CCNC(=S)Nc1ccc(Oc2ccccc2)cc1
The “hERG current change (%, negative = inhibition) at 10uM” value of the first is higher: 18% for the first, 7.36% for the second.

First: COC(=O)c1c(C(=O)OC)c(-c2ccccc2)n2c1CS(=O)C2 (centres unmarked)
Second: COc1ccc2c(c1)c(C(=O)N1CCN(C)CC1)c(C)n2-c1ccccc1
The “hERG current change (%, negative = inhibition) at 10uM” value of the first is higher: 11% for the first, -44% for the second.

Compared with `O=C(c1cccc(S(=O)(=O)Nc2ccc(F)cc2)c1)N1CCC1`, `Cc1ccc(S(=O)(=O)N2CCN(C(=O)c3ccccc3OCc3c(C)noc3C)CC2)cc1` is lower in “hERG current change (%, negative = inhibition) at 10uM” value: 4.11% for the first, -9.72% for the second.

Going from `COc1cc2nc(N(C)C)nc(N)c2cc1OC.Cl` to `COc1ccc(CC(=O)Nc2nc(C)cs2)cc1OC`, the “hERG current change (%, negative = inhibition) at 10uM” value falls from -16% to -17.4%.

Going from `CCNC(=O)C1CCCN1C(=O)C(CCCN=C(N)N)NC(=O)C(CC(C)C)NC(=O)C(Cc1cn(Cc2ccccc2)cn1)NC(=O)C(Cc1ccc(O)cc1)NC(=O)C(CO)NC(=O)C(Cc1c[nH]c2ccccc12)NC(=O)C(Cc1cnc[nH]1)NC(=O)C1CCC(=O)N1` (centres unmarked) to `C#CCOCCOCCOCCNc1nc(N2CCN(C(=O)[C@H](CCC(=O)O)n3cc(C(N)CC(C)C)nn3)CC2)nc(N2CCN(C(=O)[C@H](Cc3ccc(O)cc3)n3cc(C(N)[C@H](C)CC)nn3)CC2)n1.Cl` (some centres unmarked), the “hERG current change (%, negative = inhibition) at 10uM” value falls from 6.74% to -8.37%.

Going from `C/C(=N\N=C1\NC(=O)C(CC(=O)Nc2ccc(C)c(Cl)c2)S1)C(C)C` (centres unmarked) to `Cc1ccc(NC(=O)COC(=O)c2ccc3c(c2)OCCO3)cc1S(=O)(=O)N1CCOCC1`, the “hERG current change (%, negative = inhibition) at 10uM” value falls from 12.2% to 6.16%.

First: Cc1ccc2nc(-c3cccc(Br)c3)cc(C(=O)NCC3CCCO3)c2c1 (centres unmarked)
Second: O=C(NCC1CCCO1)c1cccc(Br)c1 (centres unmarked)
The “hERG current change (%, negative = inhibition) at 10uM” value of the first is higher: 8.66% for the first, -4.16% for the second.

Compared with `c1csc(-c2nc(CN3CCSCC3)cs2)c1`, `CC(C)c1csc(CN2CCN(CCc3ccccc3)C(CCO)C2)n1` (centres unmarked) is lower in “hERG current change (%, negative = inhibition) at 10uM” value: 14.2% for the first, -76% for the second.

Compared with `COCC1CCN(C(=O)C2CCC(=O)N(Cc3cccc(F)c3)C2)CC1` (centres unmarked), `COCCCN1C(=O)c2ccccc2C1C(=O)NC1CCCCCC1` (centres unmarked) is higher in “hERG current change (%, negative = inhibition) at 10uM” value: -6.81% for the first, -2.83% for the second.

Compared with `COc1ccc(CN2CCN(c3ccccc3)CC2)c(C)c1C`, `CCOc1ccccc1NC(=O)c1ccc(CN2CCc3ccccc3C2)cc1` is higher in “hERG current change (%, negative = inhibition) at 10uM” value: -13.8% for the first, 6.53% for the second.

Going from `CCOC(=O)CCC(NC(=O)CCCCCCCCC(=O)NC(CCC(=O)OCC)C(=O)OCC)C(=O)OCC` (centres unmarked) to `CCOC(=O)c1c(C)[nH]c(C)c1C(=O)COC(=O)c1ccc([N+](=O)[O-])s1`, the “hERG current change (%, negative = inhibition) at 10uM” value falls from -14.7% to -28.1%.

Going from `CCOC(=O)c1ccc2c(c1)n(CCCS(=O)(=O)[O-])c(/C=C/c1ccc(Cl)cc1)[n+]2CC` to `COc1cccc(C(=O)O/N=C2\CCS(=O)(=O)c3sccc32)c1`, the “hERG current change (%, negative = inhibition) at 10uM” value rises from -23.1% to 39.6%.

Going from `COc1ccccc1Nc1nc(NCCC(C)C)nc(N)c1[N+](=O)[O-]` to `COc1ccccc1NC(=O)c1ccc(NC(=O)c2ccc(=O)[nH]c2)cc1`, the “hERG current change (%, negative = inhibition) at 10uM” value falls from 11.5% to -3.72%.

First: COc1cccc(NC(=O)C(NCC2CCCCC2)c2ccccc2)c1.O=C(O)C(=O)O (centres unmarked)
Second: CC(=O)Nc1ccc(NC(=O)[C@@H](NC(=O)N2C[C@H]3C[C@@H](C2)c2cccc(=O)n2C3)C(C)C)cc1
The “hERG current change (%, negative = inhibition) at 10uM” value of the first is lower: -3.83% for the first, -0.378% for the second.

Compared with `CC(C)c1ccc(C2CC(=O)c3cnc(N4CCc5ccccc5C4)nc3C2)cc1` (centres unmarked), `O=C1CC(c2ccccc2)Cc2nc(NCc3ccco3)ncc21` (centres unmarked) is lower in “hERG current change (%, negative = inhibition) at 10uM” value: 0.754% for the first, -17.3% for the second.

Compared with `CC1(C)NC(=O)N(CC(=O)OCC(=O)Nc2cc(S(=O)(=O)N3CCCCCC3)ccc2Cl)C1=O`, `O=C(c1ccc(S(=O)(=O)N2CCCC2)cc1)N(Cc1ccco1)C1CCS(=O)(=O)C1` (centres unmarked) is higher in “hERG current change (%, negative = inhibition) at 10uM” value: -17.3% for the first, -10.3% for the second.

First: Cc1ccccc1NC(=S)N1CCC(NC(=O)c2ccco2)CC1
Second: CCN1CCN(C(=S)Nc2ccsc2C(=O)OC)CC1
The “hERG current change (%, negative = inhibition) at 10uM” value of the first is lower: -19.7% for the first, 6.04% for the second.

Compared with `COc1cc(NC(=S)NC2CC2)c(OC)cc1Cl`, `O=C(O)c1cc(Br)ccc1NN=C1CCCCC1` is higher in “hERG current change (%, negative = inhibition) at 10uM” value: -1.86% for the first, -1.51% for the second.

First: O=C1N(Cc2cccnc2)C[C@@H]2C[C@@H](c3cccc(C(F)(F)F)c3)N3CCC[C@@]123
Second: CCC(=O)N1CCN=C1SCc1cccc(C(F)(F)F)c1
The “hERG current change (%, negative = inhibition) at 10uM” value of the first is higher: -10.3% for the first, -33.5% for the second.

First: CN(Cc1ccco1)c1ncnc2ccc(-c3ccoc3)cc12
Second: Cc1ccc2[nH]c3c(=O)n(CCc4cnc[nH]4)cnc3c2c1
The “hERG current change (%, negative = inhibition) at 10uM” value of the first is higher: -7.12% for the first, -9.8% for the second.

First: Cl.O=C(OCCN1CCOCC1)c1ccc(OCCN2CCOCC2)cc1
Second: CCC(Oc1ccccc1)C(=O)N(C)CC(=O)N(CC(C)C)c1c(N)n(CC(C)C)c(=O)[nH]c1=O (centres unmarked)
The “hERG current change (%, negative = inhibition) at 10uM” value of the first is lower: 6.18% for the first, 10.2% for the second.

`O=C(NCc1cccnc1)NC(C(F)(F)F)C(F)(F)F` was tested, and the “hERG current change (%, negative = inhibition) at 10uM” value was 1.24%.
